Measurements taken from PubChem BioAssay AID602332 (National Center for Advancing Translational Sciences (NCATS), 2012).
In all, about 420,000 compounds went through this assay and about 75 (0.02%) were called active. Inconclusive means that the source gave no clear call. Such entries were picked first, then a sample of the others. The call rests on the fitted dose curve; in most records, active means well fitted activation curve with a large enough effect; inconclusive means small, poorly fitted or top-dose-only effect; inactive means no such curve, though single readings can be large or run the other way. Potencies of inconclusive entries are doubtful fits and often do not repeat.

Assay: qHTS for Inducers of the Endoplasmic Reticulum Stress Response (ERSR) in Human Glioma: qHTS; further: nearly all actives have a fitted effect of over 35% in size; on activation: % of control where 0% means no effect
Conditions: U87-MG GRP78 promoter luciferase reporter, 16 h; activation: active compounds read high
Outline: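 ERSR induction read as luciferase luminescence (Bright-Glo, 10 min at room temperature) in stably transfected human U87-MG glioma cells exposed to compounds for 16 h, using GRP78 as sensor.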
Potency means the concentration at half of the fitted maximal effect; tags describe the fitted curve by direction and shape.

Potency, inconclusive:
O=C1c2ccc3c4c(ccc(c24)C(=O)N1CCCCO)C(=O)N(CCCCO)C3=O 50.1 µM [activator, single point]
Nc1ccc2cc3ccc(N)cc3nc2c1 20 µM [activator, single point]
COc1ccccc1-c1cnn2c(NCCc3ccccc3)cc(C)nc12 10 µM [activator, full curve, poor fit]
O=C(Nc1ccc2oc(-c3ccncc3)nc2c1)c1ccc([N+](=O)[O-])o1 11.2 µM [activator, single point]
N/C(=N\OC(=O)CCCc1ccccc1)c1ccccc1 10 µM [activator, single point]
CCc1ccc(-c2cc(C(=O)N3N=C(C(F)F)CC3(O)C(F)F)c3ccccc3n2)cc1 (centres undefined) 10 µM [activator, partial curve, poor fit]
O=C(CC(=O)c1ccccc1)CC(O)(C=Cc1ccccc1)c1ccccc1 (centres undefined) 22.4 µM [activator, partial curve, poor fit]
O=C(Nc1ncccc1O)c1ccc(C(=O)c2ccccc2)cc1 12.6 µM [activator, full curve, poor fit]
O=C(c1cc(COc2ccc(F)cc2Cl)on1)N1CCSCC1 2.24 µM [activator, partial curve, poor fit]
c1ccc(Nc2nc(-c3ccncc3)cs2)cc1 2 µM [activator, partial curve, poor fit]
COC(=O)c1sc(-c2ccc(Cl)cc2)cc1NC(=O)c1ccccc1C(=O)O 28.2 µM [activator, single point]
CCCCn1c(O)c(/C=C/C=C/C=Nc2ccccc2)sc1=S 44.7 µM [activator, partial curve, poor fit]
Oc1ccc(N=Cc2ccc(OCc3ccccc3)cc2)cc1 44.7 µM [activator, partial curve, poor fit]
COc1ccc(S(=O)(=O)NC(=O)C2(C)CCN2C(=O)C2CCCCC2)cc1OC (centres undefined) 12.6 µM [activator, single point]
N#C/C(=C/c1ccc(N2CCOCC2)o1)c1ccc(Cl)cc1 11.2 µM [activator, partial curve, poor fit]
Cc1nn(C)c(C(=O)NC(=S)Nc2ccccc2O)c1Cl 31.6 µM [activator, single point]
N#Cc1c2c(c(Cl)n3c1nc1ccccc13)CCCC2 10 µM [activator, partial curve, poor fit]
OCCNc1c2ccccc2nc2ccccc12 11.2 µM [activator, single point]
COc1ccc2cc(C(=O)NC3CCCCC3)c(=O)oc2c1 11.2 µM [activator, single point]
Cc1ccc(-c2nn(-c3ccccc3)cc2C=C2C(=O)CC(C)(C)CC2=O)cc1 44.7 µM [activator, partial curve, poor fit]
Oc1ccc(C(=S)N2CCCCC2)cc1 35.5 µM [activator, partial curve]
CCNCCC(=O)N1c2ccccc2Sc2ccc(C(F)(F)F)cc21 28.2 µM [activator, single point]
O=C(NN1C(=O)/C(=C\c2ccc(O)c([N+](=O)[O-])c2)SC1=S)c1ccccc1Cl 50.1 µM [activator, single point]
O=C(Nc1nnc(COc2ccccc2)s1)C1CCN(S(=O)(=O)c2ccc(Cl)cc2)CC1 5.01 µM [activator, single point]
Cc1onc(-c2ccccc2)c1C(=O)NNC(=O)c1ccccc1O 10 µM [activator, partial curve, poor fit]
O=C(O)CC/C(=C\c1cccc(NC(=O)c2ccccc2Cl)c1)c1nc2ccccc2s1 50.1 µM [activator, single point]
CCOC(=O)c1ccc(Nc2ccc(-c3ccc(OC)c(OC)c3)nn2)cc1 20 µM [activator, single point]
CCOCCOC(=O)COc1ccc2c(-c3ccccc3)cc(=O)oc2c1 35.5 µM [activator, partial curve]
Cc1ccsc1CN(C)C(=O)C1CCC(=O)N(CCc2cccc(F)c2)C1 (centres undefined) 10 µM [activator, partial curve, poor fit]
CN(C)c1nc(C=C(C#N)C#N)c(Cl)n1-c1ccc(F)cc1 28.2 µM [activator, single point]

activation, inactive:
CCN(CC)C(=O)c1csc(Nc2cccc3ccccc23)n1 1.96%
Cc1ccccc1-c1noc(-c2ccccc2C(=O)NCC2CCCO2)n1 (centres undefined) 4.37%
CCOC(=O)c1ccc2[nH]c(C)cc(=O)c2c1 5.59%
O=C(NCCNCc1ccccn1)c1ccco1 -2.53%
COc1cccc2cc(C(=O)NNC(=O)c3ccc(Br)cc3)c(=O)oc12 -6.23%
Nc1ccccc1C(=O)Nc1cccc(C(=O)O)c1 -9.13%
Cc1ccc(C(=O)n2cnnc2N)cc1C -7.41%
CCn1cc2nc(SCc3cc(C)ccc3C)n(Cc3ccc(OC)cc3)c(=O)c2n1 -2.34%
Cc1cccc(CC(=O)NC2CCN(C)CC2)c1 -3.66%
O=C1Nc2ccccc2/C1=C/C(=O)c1cccs1 -12.9%
COc1ccc(C(C)NC(=O)C2CCN(CCCc3ccccc3)CC2)cc1OC (centres undefined) -5.43%
Cc1cccc(COC(=O)Nc2ccc(NC(=O)c3ccccc3Cl)cc2)c1 -4.95%
CCc1ccc(C(=O)c2cn(CC(=O)Nc3cc(OC)ccc3OC)c3ccc(C)cc3c2=O)cc1 -3.07%
Cc1cc(NCCCn2ccnc2)n2ncc(-c3ccc(Cl)cc3)c2n1 0.0417%
